Measurements published in the supplement of paper PMC4723716.
± gives the uncertainty stated by the source. The full ranking holds about 9,900 compounds; the median of “viability index relative to DMSO control” is about 1, and the lowest 2% start at about 0.85. The list shows a part of the results.

system: Plasmodium falciparum NF54 stage V gametocytes; assay: viability index relative to DMSO control (fraction); higher = less gametocyte killing; conditions: 2.5 µM, library set: Broad Institute DOS, incubation time: 72 h
Method in brief: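 Stage V gametocytes of P. falciparum NF54 were held in serum-free screening medium at 0.75% gametocytemia and 1.25% hematocrit, 10 µl per well of a 1,536-well plate, and exposed to compound at 2.5 µM for 72 hr at 37°C under low oxygen. A 3 µl mix of 2.5 µM MitoTracker Red CMXRos with 0.13% saponin was then added for one to two hours, after which one field per well was imaged and red particles of 20–70 µm2 were counted. The viability index equals this count divided by the plate mean from wells given solvent alone.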

Structure (SMILES) | viability index
O=C(C[C@@H]1CC[C@@H]2[C@H](COC[C@H](O)CN2C(=O)c2ccc3c(c2)OCO3)O1)NC1CCC1 | 0.945 ± 0.078
CO[C@@H]1CN(C)C(=O)c2cc(NC(=O)Nc3c(C)noc3C)ccc2OC[C@H](C)NC[C@H]1C | 0.973 ± 0.063
COc1ccc2c3c([C@@H](CO)N(C[C@]33CCN(CC3)C(=O)Nc3c(C)noc3C)C(=O)Nc3ccc(F)cc3)n(C)c2c1 | 1 ± 0.062
CC[C@H]1C/C=C/C[C@@H](C)Oc2ccccc2C(=O)N(C)[C@H](C)C(=O)N1.CC[C@H]1C/C=C\C[C@@H](C)Oc2ccccc2C(=O)N(C)[C@H](C)C(=O)N1 | 1.04 ± 0.086
CCN1[C@@H]2Cn3c(ccc(-c4ccc(F)cc4)c3=O)[C@H]1[C@@H](C(=O)Nc1nccs1)[C@@H]2CO | 1 ± 0.003
CCOC(=O)c1cc2c(c(-c3cccc(Br)c3)n1)[C@@H](CCO)N(C(=O)NC(C)C)C2 | 0.907 ± 0.017
CN1CCN(C(=O)C[C@@H]2CC[C@H]3[C@@H](COC[C@H](O)CN3Cc3cccc(-c4ccncc4)c3)O2)CC1 | 1.05 ± 0.049
CO[C@@H]1CN(C)C(=O)c2cc(NC(=O)c3cnccn3)ccc2OC[C@@H](C)NC[C@H]1C | 1.03 ± 0.04
C[C@@H]1CN([C@@H](C)CO)C(=O)c2ccccc2-c2ccccc2CO[C@@H]1CN(C)S(=O)(=O)c1ccc([N+](=O)[O-])cc1 | 0.975 ± 0.0086
CNC[C@H]1Oc2c(N)cccc2C(=O)N([C@H](C)CO)C[C@@H]1C | 1.01 ± 0.083
COc1cccc(C(=O)Nc2ccc3c(c2)C(=O)N(C)[C@H]2CC[C@H](CC(=O)NCc4ccc(F)cc4)O[C@@H]2CO3)c1 | 1.02 ± 0.086
NCC[C@H]1CC[C@@H](NC(=O)NC2CCCCC2)[C@H](CO)O1 | 1.03 ± 0.031
CC(=O)N1[C@@H](CO)[C@@H](c2ccccc2)[C@@H]1CN(C)S(=O)(=O)c1ccccc1 | 0.9877 ± 0.0094
CO[C@@H]1CC[C@@H]2CCOc3c(C#N)cccc3C(=O)N(C)C[C@@H](OC)[C@@H](C)C(=O)N(C)C[C@@H]1O2 | 1.03 ± 0.056
O=C(c1ccc2c(c1)OCO2)N1CC[C@@H]2[C@H](CO)Nc3ccc(C#Cc4ccccc4)cc3[C@@H]21 | 1.07 ± 0.018
COCC(=O)N1CC(=O)N2[C@H](CO)[C@@H](c3ccc(C#CC4CC4)cc3)[C@@H]2C1 | 1.11 ± 0.041
CCCNC(=O)N1C[C@@]2(C1)CN([C@@H](CO)c1[nH]c3cc(OC)ccc3c21)C(=O)CN1CCOCC1 | 1.0913 ± 0.00046
C[C@@H]1CN([C@H](C)CO)C(=O)c2cc(NS(C)(=O)=O)ccc2O[C@@H](C)CCCCO[C@@H]1CN(C)C(=O)Cc1ccccc1 | 1.1 ± 0.011
O=C(C1CCCCC1)N1CC(=O)N2[C@@H](CO)[C@H](c3ccc(-c4ccccc4F)cc3)[C@@H]2C1 | 1.09 ± 0.015
C[C@@H]1CN([C@@H](C)CO)C(=O)c2ccccc2-c2ccccc2CO[C@@H]1CN(C)C(=O)Nc1ccc(-c2ccccc2)cc1 | 0.977 ± 0.016
CCC(=O)Nc1ccc2c(c1)C(=O)N(C)C[C@H](OC)[C@@H](C)CN(C(=O)Cc1cccnc1)[C@@H](C)CO2 | 0.997 ± 0.013
CN(C)CC(=O)N1CC2(C1)[C@H](c1ccccc1)[C@@H](CO)N2S(C)(=O)=O | 1.07 ± 0.084

Structure (SMILES) | viability index
CN1C(=O)c2cc(NS(C)(=O)=O)ccc2OC[C@@H]2O[C@H](CC(=O)N3CCOCC3)CC[C@H]21 | 0.861 ± 0.079
C[C@H]1CN([C@@H](C)CO)C(=O)CCCn2nncc2CO[C@H]1CN(C)C(=O)Nc1ccnc(N2CCOCC2)c1 | 1.03 ± 0.011
O=C(C[C@@H]1C[C@@H]2c3cc(NC(=O)C4CCOCC4)ccc3O[C@@H]2[C@@H](CO)O1)NCCN1CCCCC1 | 1.07 ± 0.12
O=C(NC1CCCCC1)N1C[C@@H]2N[C@H](C1)[C@H]2c1ccc(-c2ccc(F)cc2)cc1 | 0.969 ± 0.05
C/C=C/c1ccc([C@@H]2[C@H]3CNC[C@@H]2N3Cc2cc(F)ccc2F)cc1 | 0.98 ± 0.024
C[C@@H]1CN([C@H](C)CO)C(=O)CCCn2nncc2CO[C@H]1CN(C)Cc1ccc2c(c1)OCCN2C | 1.02 ± 0.031
CO[C@@H]1CN(C)C(=O)c2cc(NC(=O)c3cccc(F)c3)ccc2OC[C@H](C)N(C)C[C@H]1C | 1.026 ± 0.01
CCCNC(=O)N1C[C@@]2(C1)CN([C@@H](CO)c1[nH]c3cc(OC)ccc3c21)C(=O)c1ccccc1 | 0.967 ± 0.11
C[C@@H]1CCCCO[C@H](CN(C)S(=O)(=O)c2ccccc2)[C@H](C)CN([C@@H](C)CO)C(=O)c2cc(NC(=O)Nc3ccc4c(c3)OCO4)ccc2O1 | 0.948 ± 0.031
CCN1C[C@@H](C)[C@H](OC)CN(C)C(=O)c2cc(NC(=O)c3ccno3)ccc2OC[C@H]1C | 1.04 ± 0.017
CN(C)C(=O)C[C@H]1C[C@H]2c3cc(NC(=O)c4cccnc4)ccc3O[C@H]2[C@H](CO)O1 | 0.962 ± 0.025
C/C=C/c1ccc([C@@H]2[C@@H](CN(CC)C(=O)CN(C)C)N(C(C)=O)[C@H]2CO)cc1 | 1.07 ± 0.029
COCC(=O)N1C[C@@]2(C1)CN(Cc1cccc(F)c1)[C@@H](CO)c1c2c2ccc(OC)cc2n1C | 0.899 ± 0.095
C[C@H]1CN([C@@H](C)CO)C(=O)c2cc(N(C)C)ccc2O[C@@H]1CN(C)Cc1ccc(Oc2ccccc2)cc1 | 0.94 ± 0.021
CN1c2ccc(C3=CCCCC3)cc2[C@@H]2[C@@H](CCN2C(=O)c2ccc3c(c2)OCO3)[C@@H]1CO | 0.868 ± 0.015
C[C@@H]1CN([C@@H](C)CO)C(=O)CCCn2cc(nn2)CO[C@H]1CN(C)C(=O)Nc1cccc2ccccc12 | 0.942 ± 0.036
CCCNC(=O)N1C[C@]2(CCN(CC2)S(=O)(=O)c2ccccc2)c2c([C@H]1CO)n(C)c1cc(OC)ccc21 | 0.9945 ± 0.0077
O=C(C[C@@H]1CC[C@@H]2[C@H](COC[C@H](O)CN2Cc2cccc(Cl)c2)O1)NCc1cccc(F)c1 | 1.06 ± 0.013
C[C@@H]1CCCCO[C@H](CN(C)S(=O)(=O)c2ccc(F)cc2)[C@@H](C)CN([C@H](C)CO)C(=O)c2cc(NC(=O)CCCCCC(=O)Nc3ccccc3N)ccc2O1 | 1.08 ± 0.027
COc1ccc(-c2ccc([C@H]3[C@@H](C#N)N(C(=O)NC(C)C)[C@@H]3CO)cc2)cc1 | 1.1 ± 0.052
CO[C@@H]1CN(C)C(=O)c2ccc(NC(=O)c3nc4ccccc4s3)cc2OC[C@@H](C)N(Cc2cccnc2)C[C@H]1C | 1.05 ± 0.044
Cc1ccccc1-c1ccc([C@H]2[C@@H]3CN(Cc4cncnc4)C[C@H]2N3)cc1 | 1.05 ± 0.065
